The experiment has as its target Genome polyprotein (dengue virus type 2) (UniProt P29990).
[1] abbreviates: Thailand/16681/1984, Concentration 25.0 uM, Number of replicates 1.0.

As usually defined, the inhibition is the change of the read-out against control, counted positive when it falls.

The whole screen tested about 2,000 compounds, of which about 110 (5.5%) showed an effect of 50% or more. The list shows a part of the results.

Turning to `N#Cc1ccc(C[C@H](NC(=O)c2ccccc2)C(=O)N2CCC[C@@H](CNC(=N)N)C2)cc1`, the inhibition (Thailand/16681/1984, Concentration 49.5 uM, Number of replicates 2.0, Standard deviation 0.9652770488589378 %) was -2.01%; the inhibition (Thailand/16681/1984, Concentration 99.01 uM, Number of replicates 2.0, Standard deviation 1.769585842360705 %) was found to be 0.384%; the inhibition (Thailand/16681/1984, Concentration 198.0 uM, Number of replicates 2.0, Standard deviation 0.6833160653139061 %) was 2.07%.

Turning to `O=C(Cc1cnc[nH]1)NC1CCN(C(=O)c2cccc3[nH]ncc23)CC1`, the inhibition reads like this: (Thailand/16681/1984, Concentration 49.5 uM, Number of replicates 2.0, Standard deviation 0.5712330544607026 %) -0.001%; (Thailand/16681/1984, Concentration 99.01 uM, Number of replicates 2.0, Standard deviation 0.88648652906749 %) 0.297%; (Thailand/16681/1984, Concentration 198.0 uM, Number of replicates 2.0, Standard deviation 1.4162803173835237 %) -0.087%.

Regarding `Cc1nccc(Cn2cc(C3CCNCC3)c(C)n2)n1`, the inhibition is, setting by setting: (Thailand/16681/1984, Concentration 49.5 uM, Number of replicates 2.0, Standard deviation 0.12424043789356491 %) -1.07%; (Thailand/16681/1984, Concentration 99.01 uM, Number of replicates 2.0, Standard deviation 0.32682664095966646 %) -0.665%; (Thailand/16681/1984, Concentration 198.0 uM, Number of replicates 2.0, Standard deviation 1.945197851645592 %) 1.76%.

On to `NS(=O)(=O)c1nc(C(=O)N2CCc3c(CO)cccc32)n2ccccc12`, for which the inhibition amounted to 13.7% (Thailand/16681/1984, Concentration 49.5 uM, Number of replicates 2.0, Standard deviation 1.0653576909274516 %); 14.9% (Thailand/16681/1984, Concentration 99.01 uM, Number of replicates 2.0, Standard deviation 2.1758259967530833 %); 17% (Thailand/16681/1984, Concentration 198.0 uM, Number of replicates 2.0, Standard deviation 0.4448171648343994 %).

For the compound `Cc1cnc2ccccc2c1NC(=O)c1cccn(CC(C)C)c1=O`, the inhibition is, setting by setting: (Thailand/16681/1984, Concentration 49.5 uM, Number of replicates 2.0, Standard deviation 0.7211595098575954 %) 0.008%; (Thailand/16681/1984, Concentration 99.01 uM, Number of replicates 2.0, Standard deviation 0.6129588138081243 %) 4.71%; (Thailand/16681/1984, Concentration 198.0 uM, Number of replicates 2.0, Standard deviation 0.2617063039687573 %) 13%.

Regarding `Cc1n[nH]cc1-c1ccccc1C(=O)Nc1cnn(C)c1`, the inhibition is, setting by setting: (Thailand/16681/1984, Concentration 49.5 uM, Number of replicates 2.0, Standard deviation 1.4825862030761958 %) -4.22%; (Thailand/16681/1984, Concentration 99.01 uM, Number of replicates 2.0, Standard deviation 3.6856999240165664 %) -5.61%; (Thailand/16681/1984, Concentration 198.0 uM, Number of replicates 2.0, Standard deviation 2.662860479629087 %) -5.61%.

As to `O=Cc1ccc(N2CCC(C(=O)N3CCC4(CC3)CC(=O)c3ccccc3O4)CC2)cc1`, the inhibition under setting [1] worked out at 11.6%.

In the case of `O=C(C(=O)N1CCOCC1)c1c[nH]c2ccccc12`, the inhibition reads like this: (Thailand/16681/1984, Concentration 49.5 uM, Number of replicates 2.0, Standard deviation 0.6407145366012766 %) 0.9%; (Thailand/16681/1984, Concentration 99.01 uM, Number of replicates 2.0, Standard deviation 1.98867718330887 %) 1.61%; (Thailand/16681/1984, Concentration 198.0 uM, Number of replicates 2.0, Standard deviation 1.596809388749934 %) 3.54%.

`Cn1cc(NC(=O)c2ccccc2-c2ccc(C(=O)O)nc2)cn1`: the inhibition was -3.01% (Thailand/16681/1984, Concentration 49.5 uM, Number of replicates 2.0, Standard deviation 3.6721540744191348 %); -2.48% (Thailand/16681/1984, Concentration 99.01 uM, Number of replicates 2.0, Standard deviation 4.856957640973825 %); -0.768% (Thailand/16681/1984, Concentration 198.0 uM, Number of replicates 2.0, Standard deviation 5.981907435360405 %).

Consider `COc1cc(COc2ccnc3ccnn23)nc(N2CCNCC2)n1`, for which the inhibition (Thailand/16681/1984, Concentration 49.5 uM, Number of replicates 2.0, Standard deviation 1.6931264436869704 %) is -1.8%; the inhibition (Thailand/16681/1984, Concentration 99.01 uM, Number of replicates 2.0, Standard deviation 0.6739893892069304 %) was -1.84%; the inhibition (Thailand/16681/1984, Concentration 198.0 uM, Number of replicates 2.0, Standard deviation 0.06794244782035012 %) was -0.955%.

Turning to `O=Cc1ccc(N2CCC(C(=O)N3CCC[C@H](c4nnc5ccccn45)C3)CC2)cc1`, the inhibition under setting [1] worked out at 12.6%.

Turning to `O=Cc1ccc(N2CCC(C(=O)NC3CCN(CC4CCOCC4)CC3)CC2)cc1`, under setting [1], the inhibition is 11%.

As to `Cc1cc(CO)c2cccc(Cc3cccc(C(=O)N[C@@H](CCCN)C(=O)O)c3)c2n1`, the inhibition (Thailand/16681/1984, Concentration 49.95 uM, Number of replicates 2.0, Standard deviation 0.7049975000059713 %) is -1.78% and the inhibition (Thailand/16681/1984, Concentration 99.9 uM, Number of replicates 2.0, Standard deviation 0.2824297407941699 %) was 11.7%.

As for `O=C(O)c1cnn(C2CCN(Cc3c[nH]nc3-c3ccccc3)CC2)n1`, the inhibition is, setting by setting: (Thailand/16681/1984, Concentration 49.5 uM, Number of replicates 2.0, Standard deviation 0.4065248774274935 %) -0.721%; (Thailand/16681/1984, Concentration 99.01 uM, Number of replicates 2.0, Standard deviation 0.1820182459648457 %) -1.14%; (Thailand/16681/1984, Concentration 198.0 uM, Number of replicates 2.0, Standard deviation 0.9153367001493489 %) -1.33%.

Consider `O=Cc1ccc(N2CCC(C(=O)N3CCN(Cc4ccc(Cl)nc4)CC3)CC2)cc1`, for which the inhibition under setting [1] was determined as 10.1%.

For `COc1ccc(S(=O)(=O)N2CCC(C(=O)Nc3nc4ccccc4s3)CC2)cc1`, the inhibition was 2.28% (Thailand/16681/1984, Concentration 49.5 uM, Number of replicates 2.0, Standard deviation 1.3648800018415175 %); 4.97% (Thailand/16681/1984, Concentration 99.01 uM, Number of replicates 2.0, Standard deviation 0.35874487080545164 %); 5.55% (Thailand/16681/1984, Concentration 198.0 uM, Number of replicates 2.0, Standard deviation 3.7738315130637563 %).

Consider `c1ccc2c([C@H]3CCN(CCC4CCOCC4)C3)c[nH]c2c1`, for which the inhibition reads like this: (Thailand/16681/1984, Concentration 49.5 uM, Number of replicates 2.0, Standard deviation 1.27680522674612 %) 2.4%; (Thailand/16681/1984, Concentration 99.01 uM, Number of replicates 2.0, Standard deviation 0.5804152090241346 %) 2.68%; (Thailand/16681/1984, Concentration 198.0 uM, Number of replicates 2.0, Standard deviation 0.0005418398844560537 %) 3.09%.

For `NC(=O)c1cn(C[C@H]2CCCN2c2ccnc3ccccc23)nn1`, the inhibition (Thailand/16681/1984, Concentration 49.5 uM, Number of replicates 2.0, Standard deviation 1.619804877884872 %) was found to be 8.16%; the inhibition (Thailand/16681/1984, Concentration 99.01 uM, Number of replicates 2.0, Standard deviation 0.6247376778551609 %) was 17.3%; the inhibition (Thailand/16681/1984, Concentration 198.0 uM, Number of replicates 2.0, Standard deviation 0.4222615202105213 %) came to 30.3%.

For the compound `O=Cc1ccc(N2CCC(C(=O)N3CCC(Cc4ccccc4)CC3)CC2)cc1`, the inhibition under setting [1] is 14.5%.

Take `Cn1cnc2[nH]c(C(=O)N3CC[C@H](c4c[nH]c5ccccc45)C3)cc21`: the inhibition is, setting by setting: (Thailand/16681/1984, Concentration 49.5 uM, Number of replicates 2.0, Standard deviation 2.003876801484884 %) -2.49%; (Thailand/16681/1984, Concentration 99.01 uM, Number of replicates 2.0, Standard deviation 1.2772748269322285 %) -1.94%; (Thailand/16681/1984, Concentration 198.0 uM, Number of replicates 2.0, Standard deviation 1.685869304282425 %) -0.105%.

For the compound `O=Cc1ccc(N2CCC(C(=O)Nc3cnc(Cl)c(Br)c3)CC2)cc1`, under setting [1], the inhibition came to 12.3%.

In the case of `CNC(=O)[C@H]1CN(S(=O)(=O)c2ccc(Oc3ccccc3Cl)cc2)CCO1`, the inhibition reads like this: (Thailand/16681/1984, Concentration 49.5 uM, Number of replicates 2.0, Standard deviation 0.2669928674711758 %) -4.8%; (Thailand/16681/1984, Concentration 99.01 uM, Number of replicates 2.0, Standard deviation 0.624095865646037 %) -4.22%; (Thailand/16681/1984, Concentration 198.0 uM, Number of replicates 2.0, Standard deviation 0.6183745152543801 %) -5.47%.

As to `Cc1cn2nnc(C(=O)N[C@H]3CCCCn4c3n[nH]c4=O)c2c(=O)[nH]1`, the inhibition reads like this: (Thailand/16681/1984, Concentration 49.5 uM, Number of replicates 2.0, Standard deviation 0.2359641679366373 %) -0.501%; (Thailand/16681/1984, Concentration 99.01 uM, Number of replicates 2.0, Standard deviation 0.10523355791430405 %) -0.563%; (Thailand/16681/1984, Concentration 198.0 uM, Number of replicates 2.0, Standard deviation 0.06258385535382655 %) -1.4%.

As to `Cc1c(C(=O)NCc2ccc(Cl)cc2OCCO)ccc(O)c1NC(=O)c1ccncc1F`, the inhibition (Thailand/16681/1984, Concentration 49.5 uM, Number of replicates 2.0, Standard deviation 1.9465984757153059 %) is -3.14%; the inhibition (Thailand/16681/1984, Concentration 99.01 uM, Number of replicates 2.0, Standard deviation 1.7394020396248402 %) was -2.65%; the inhibition (Thailand/16681/1984, Concentration 198.0 uM, Number of replicates 2.0, Standard deviation 1.2400320592735166 %) came out at 0.351%.

For `COCCN(Cc1cccc2ccccc12)C(=O)C1CCN(c2ccc(C=O)cc2)CC1`, under setting [1], the inhibition came out at 12.1%.

Regarding `Cc1cc(CO)c2cccc(NC(=O)[C@@H](N)CCN)c2n1`, the inhibition (Thailand/16681/1984, Concentration 49.95 uM, Number of replicates 2.0, Standard deviation 3.3658560886244877 %) was -1.14% and the inhibition (Thailand/16681/1984, Concentration 99.9 uM, Number of replicates 2.0, Standard deviation 3.0766976877592507 %) was -5.81%.

(Values after ChEMBL document CHEMBL5606460, “ASAP - DENV-2 NS2B-NS3 protease fluorescence single point” (2024).)
